Measurements reported in PubChem BioAssay AID1030 (National Center for Advancing Translational Sciences (NCATS), 2008).
Among all 220,000 compounds or so, about 16,000 (7.3%) were called active. Inconclusive results, whose numbers are uncertain, are shown with a selection of clear calls. Calls come from the whole dose curve; as a rule, active = well fitted inhibition curve with a large enough effect (not every such curve was filed as active); inconclusive = small, poorly fitted or top-dose-only effect, or another doubt; inactive = no such curve, though single readings can be large or run the other way. No potency is given beside an inconclusive call; the fits are too rough.

target: Aldehyde dehydrogenase 1A1 (Homo sapiens) (UniProt P00352); experiment: qHTS Assay for Inhibitors of Aldehyde Dehydrogenase 1 (ALDH1A1); details: Purified ALDH1A1, NADH fluorescence, propionaldehyde substrate; series mostly up to 75.3 µM
UniProt P00352, sequence (P00352 whole entry, looked up): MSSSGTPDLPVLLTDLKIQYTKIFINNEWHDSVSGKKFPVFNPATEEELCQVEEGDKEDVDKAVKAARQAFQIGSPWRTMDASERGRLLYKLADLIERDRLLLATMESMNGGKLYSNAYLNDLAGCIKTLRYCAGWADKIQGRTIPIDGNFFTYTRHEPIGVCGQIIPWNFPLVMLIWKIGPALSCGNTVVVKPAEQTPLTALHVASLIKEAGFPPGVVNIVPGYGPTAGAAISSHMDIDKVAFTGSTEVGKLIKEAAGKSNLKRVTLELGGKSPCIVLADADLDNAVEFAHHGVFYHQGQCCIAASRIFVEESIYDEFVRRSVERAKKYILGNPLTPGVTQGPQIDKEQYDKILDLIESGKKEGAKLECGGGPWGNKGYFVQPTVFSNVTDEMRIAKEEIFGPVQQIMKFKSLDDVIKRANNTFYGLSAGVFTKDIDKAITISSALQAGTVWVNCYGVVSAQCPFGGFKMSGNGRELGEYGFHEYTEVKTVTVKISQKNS
Potency is the fitted concentration of half-maximal effect; tags give direction and shape of the fitted curve.

Row | Structure (SMILES) | Potency
1 | Cc1ccc(NC(=S)N(CCCN(C)C)Cc2cc3cc4c(cc3[nH]c2=O)OCO4)c(C)c1 | inconclusive [inhibitor, single point]
2 | O=[N+]([O-])c1cc(Cl)cc(/C=N/NC(=S)Nc2cc(S(=O)(=O)N3CCOCC3)ccc2Cl)c1O | active: 0.178 µM
3 | Cc1ccc(S(=O)(=O)Oc2ccccc2/C=N/NC(=O)c2nn(C)cc2[N+](=O)[O-])cc1 | inconclusive [inhibitor, single point]
4 | CCOc1ccc(NC(=O)CN(C)CC(=O)Nc2ccc(Br)cc2F)cc1OCC | inactive
5 | COc1ccc(OC)c(S(=O)(=O)Nc2ccc(O)c3ccccc23)c1 | active: 3.55 µM
6 | COc1cccc(-c2noc(CCC(=O)NCC3CCCO3)n2)c1 (stereo not given) | inactive
7 | CCOC(=O)c1c(C(F)(F)F)nc2ncccn12 | inconclusive [inhibitor, single point]
8 | O=C(OCCN1CCCCC1)c1ccccc1Cl | inactive
9 | CC(=O)Nc1ccc(C#Cc2ccc(NC(C)=O)cc2)cc1 | inconclusive [inhibitor, partial curve]
10 | CCc1c(C)sc(NC(=S)N2CCN(CC)CC2)c1C(=O)OC | inconclusive [inhibitor, single point]
11 | COc1cc(N=Cc2c(O)[nH]c3ccccc23)cc(OC)c1OC | inconclusive [inhibitor, single point]
12 | c1ccc(-c2nnc3n2NC(c2ccc4c(c2)OCO4)S3)cc1 (stereo not given) | inconclusive [inhibitor, single point]
13 | CCN(CC)C(=O)COn1c(SCC(=O)N(CC)CC)nc2ccccc2c1=O | inconclusive [inhibitor, full curve]
14 | CCc1nnc(NC(=O)CN2CCN(C3CCCCC3)CC2)s1 | inconclusive [inhibitor, partial curve]
15 | Cc1ccnc(NS(=O)(=O)c2ccc(NC(=O)c3ccc(S(=O)(=O)N4CCCC4)cc3)cc2)n1 | inconclusive [inhibitor, single point]
16 | Cc1cc(C)cc(OCC(=O)NNC(=O)CCC(=O)NCc2ccccc2)c1 | inactive
17 | CC(Cl)C(=O)c1c[nH]c2ccccc12 (stereo not given) | inconclusive [inhibitor, single point]
18 | COCCCNC(=O)c1cc(=O)n(Cc2ccc(Cl)cc2)c2ccccc12 | inconclusive [inhibitor, partial curve]
19 | Cc1c(CCOC(=O)CC23CC4CC(CC(C4)C2)C3)sc[n+]1Cc1ccccc1 | inconclusive [inhibitor, single point]
20 | Cn1c(N)c(C#N)c2c(c1=S)CSC(C)(C)C2 | inconclusive [inhibitor, single point]
21 | Cc1nn2c(c1-c1ccccc1)NC1=C(C(=O)CCC1)C2c1ccccc1 (stereo not given) | inconclusive [inhibitor, partial curve]
22 | CC(=O)COc1ccc2c(-c3cccc([N+](=O)[O-])c3)cc(=O)oc2c1 | inconclusive [inhibitor, single point]
23 | C=CCSC1=C(C#N)C(c2cc(Br)c(O)c(OC)c2)CC(=O)N1 (stereo not given) | active: 25.1 µM

Row | Structure (SMILES) | Potency
24 | Cc1cccc(N2CCN(C(=O)NCc3ccc(Cl)cc3)CC2)c1 | inactive
25 | O=C(CN1CCOCC1)N/N=C/c1cc2ccccc2nc1Cl | inconclusive [inhibitor, single point]
26 | CC(=O)Nc1ccc(NC(=O)/C=C/c2ccccc2)cc1 | inactive
27 | CC(=O)C1=C(C)NC(SCc2cccc([N+](=O)[O-])c2)=C(C#N)C1c1ccco1 (stereo not given) | inconclusive [inhibitor, single point]
28 | CCCCNc1ccccc1C(=O)OCC(=O)Nc1ccc(S(N)(=O)=O)cc1 | inconclusive [inhibitor, partial curve]
29 | CC(NC(=O)C12CC3CC(CC(C3)C1)C2)C(=O)N/N=C/C1=C(N2CCOCC2)C(=C\c2ccccc2)/CC1 (stereo not given) | inconclusive [inhibitor, single point]
30 | CCOC(=O)c1c(-c2ccc(OC)cc2)csc1/N=C/C1=C(O)CCCC1=O | active: 2.24 µM
31 | O=C1CC(c2ccccc2)CCc2sccc2N1 (stereo not given) | inactive
32 | O=C1c2ccccc2C(=O)C1(O)O | active: 1.19 µM
33 | Clc1cccc(-c2nnc3sc(-c4ccc5c(c4)OCO5)nn23)c1 | active: 20 µM
34 | Cc1ncc[nH]1 | inconclusive [inhibitor, single point]
35 | CCOC(=O)N1CCN(S(=O)(=O)c2c(C)nn(C)c2C)CC1 | inconclusive [inhibitor, single point]
36 | CCCCC1NC(C(=O)O)CS1 (stereo not given) | inconclusive [inhibitor, single point]
37 | COc1ccc(C(=O)Nc2ccc(Cl)cc2C(=O)N2CCCC(C)C2)cc1OC (stereo not given) | inconclusive [inhibitor, single point]
38 | Cc1nc2cnc(N(C)C)nc2n(C2CC2)c1=O | inconclusive [inhibitor, single point]
39 | Cc1ccc(-n2c(C)cc(C(=O)CSc3nnnn3C)c2C)cc1 | inconclusive [inhibitor, partial curve]
40 | Cc1cc(C)cc(OCC(=O)Nc2ccc3c(c2)OCCO3)c1 | inconclusive [inhibitor, single point]
41 | Cc1ccc(-n2c(=O)c(C#N)cc3c(=O)n4ccccc4nc32)cc1 | inconclusive [inhibitor, partial curve]
42 | CSC1=C(C#N)C(c2ccccc2Cl)C(C(C)=O)=C(C)N1 (stereo not given) | inconclusive [inhibitor, single point]
43 | COc1ccc(Oc2nc3c(C)cccn3c(=O)c2/C=C(\C#N)C(N)=O)cc1 | inconclusive [inhibitor, single point]
44 | N#CCCn1c(=O)c(-c2ccc(F)cc2)nc2cnc(N3CCNCC3)nc21 | inconclusive [inhibitor, partial curve]
45 | O=C(NCc1ccccc1)C(c1ccc(F)cc1)N(Cc1ccc2c(c1)OCO2)C(=O)Cn1nnc(-c2cccs2)n1 (stereo not given) | active: 25.1 µM
